US10064842B2, “KCNQ channels as therapeutic targets” (Washington University, priority 2013, dated 2018)
Several values for one entry are separate records, joined by “and”; a condition that tells them apart may be missing. Equal values may be shown once. Values belong to the compound of their own block, whether it stands above or below them.

Key:
[1] = target: psWT/L353K Kv7.1 (Homo sapiens, UniProt P51787, C214A/C331A/G219C/L353K); experiment: Constitutive currents of locked-open psWT/L353K Kv7.1 channels; format: cell-based
[2] = tested on: Kv7.1 E1R double mutants; experiment: Rescued currents of E1R/S4 double mutant Kv7.1 channels; format: cell-based
[3] = target: KCNQ1+KCNE1 (IKs) WT (Homo sapiens, UniProt P51787); experiment: IKs currents in inside-out membrane patches from Xenopus oocytes at various intracellular ATP/nucleotide concentrations; conditions: for ability of nucleotide to prevent IKs current run-down: 1.5 mM nucleotide in intracellular solution, inside-out patch
[4] = target: Q357R IKs (Q357R KCNQ1 co-expressed with KCNE1) (Homo sapiens, UniProt P51787, Q357R); experiment: ATP dependence of Q357R IKs in inside-out patches; format: cell-based
[5] = tested on: KCNQ2/KCNQ3; experiment: Current after inside-out patch excision without intracellular ATP, KCNQ2/KCNQ3; format: cell-based; conditions: co-expression of KCNQ2 and KCNQ3

effect on psWT/L353K constitutive currents [1]: reduced
Compound: CCS(=O)(=O)N(C)[C@H]1c2cc(C#N)ccc2OC(C)(C)[C@@H]1O (racemic) [chromanol 293B]
effect on rescued constitutively open channel currents [2]: blocked

ability of nucleotide to prevent IKs current run-down [3]: sustained channel function
Compound: Nc1nc2c(ncn2[C@@H]2O[C@H](COP(=O)(O)OP(=O)(O)OP(=O)(O)O)[C@@H](O)[C@H]2O)c(=O)[nH]1 [GTP]

Compound: Nc1ncnc2c1ncn2[C@@H]1O[C@H](COP(=O)(O)OP(=O)(O)O)[C@@H](O)[C@H]1O [ADP]
ability of nucleotide to prevent IKs current run-down [3]: rundown of IKs currents became progressively faster

Compound: Nc1ncnc2c1ncn2[C@@H]1O[C@H](COP(=O)(O)OP(=O)(O)OP(=O)(O)O)[C@@H](O)[C@H]1O [ATP, adenosine-5′-triphosphate]
EC50 [4]: 9.6 mM
Hill coefficient of ATP dose response ([4]; Q357R IKs): 1.1
V1/2 of G-V relation (Boltzmann fit) ([4]; Q357R IKs, 0.5 mM ATP): 53.2±2.5 mV
slope factor of G-V relation ([4]; Q357R IKs, 0.5 mM ATP): 27.3±1.3
V1/2 of G-V relation (Boltzmann fit) ([4]; Q357R IKs, 5 mM ATP): 28.8±2.6 mV
slope factor of G-V relation ([4]; Q357R IKs, 5 mM ATP): 26.4±2.1
increase of current amplitude ([4]; Q357R IKs, high concentration of ATP, inside-out patch): 3- to 5 fold
ATP requirement for channel function [5]: do not require ATP for function
ability of nucleotide to prevent IKs current run-down [3]: sustained channel function
EC50 ([3]; EC50 of ATP dose response (steady state current amplitude), WT IKs, inside-out patches, Hill equation fit): 1.7 mM and 1.66 mM
Hill coefficient of ATP dose response ([3]; WT IKs): 1
V1/2 of G-V relation (Boltzmann fit) ([3]; WT IKs, 0.5 mM ATP): 25.2±2.5 mV
slope factor of G-V relation ([3]; WT IKs, 0.5 mM ATP): 25.6±1.4
V1/2 of G-V relation (Boltzmann fit) ([3]; WT IKs, 20 mM ATP): 23.6±3.6 mV
slope factor of G-V relation ([3]; WT IKs, 20 mM ATP): 27.8±2.2

ability of nucleotide to prevent IKs current run-down [3]: sustained channel function
Compound: Nc1ncnc2c1ncn2C1OC(COP(=O)(O)OP(=O)(O)NP(=O)(O)O)C(O)C1O (stereo not drawn) [AMP-PNP, 5′-adenylyl-β-γ-imidodiphosphate]
